{"source": "paper PMC12136788", "binders": {"B1": {"name": "chr2:216672581:216672718:-|3pUTR|ENSG00000115461|msi1|FALSE|unique (ssRNA)", "RNA": "GGGAGUUCUACAGUCCGACGAUCCACUCCACCAGUCCCCGGUCGCCAGCCGGAGUCUCCUCUCUACCGCCACUGUCACACCGUAGCCCACAUGGAUAGCACAGUUGUCAGACAAGAUUCCUUCAGAUUCCGAGUUGCCUACCGCAACAGAGGAUUGAGCAUCA"}, "B2": {"name": "chr21:25881503:25881610:-|3pUTR|ENSG00000142192|msi1_unk|total|mutant (ssRNA)", "RNA": "GGGAGUUCUACAGUCCGACGAUCACAAACCCGUUUUAUGAUUUACUCAUUAUCGCCUUUUGACAGCUGUGCUGUAACACAAGCCGAUGCCUGAACUUGAAUUAAUCCACACAUCAGUAAUGUAUUCUAUCUCUCUUUACAUUUCAACAGAGGAUUGAGCAUCA"}, "B3": {"name": "chr8:103332422:103332528:+|3pUTR|ENSG00000164930|msi1|FALSE|unique (ssRNA)", "RNA": "GGGAGUUCUACAGUCCGACGAUCUUUUUUAACAUUUAGAAUAUUACAUUUUGUAUUAUACAGUACCUUUCUCAGACAUUUUGUAGAAUUCAUUUCGGCAGCUCACUAGGAUUUUGCUGAACAUUAAAAAGUGUGAUAGCGAUACAACAGAGGAUUGAGCAUCA"}, "B4": {"name": "chr13:113097702:113097803:+|3pUTR|ENSG00000126217|unk|FALSE|unique (ssRNA)", "RNA": "GGGAGUUCUACAGUCCGACGAUCAAAGAAAAUACAAAGAUGCAGUUUCUGCAGGGUGUGGCGUGGACCAGUGCUGCCGACCAUAGCUCAGAGAGCCCUGCCCCUGCCUCACUGCACUGCAGCCUCCUCGGAGGCCGCACCUCCCAACAGAGGAUUGAGCAUCA"}, "B5": {"name": "chr1:6525536:6525637:-|3pUTR|ENSG00000162408|msi1|FALSE|unique (ssRNA)", "RNA": "GGGAGUUCUACAGUCCGACGAUCACAGUUUGUGUGCCAUUAAAACAGAGAUUCCUCAGAAAGUUCUUCAGGGACCUGGUUAUUAGAAUCAGGAUAAAAAUAAGGAAACUGGGGCCAUUACAAUGUACCGAGAAGGAAGGAAGACAACAGAGGAUUGAGCAUCA"}, "B6": {"name": "ENSG00000153989:stop:overlap|stop_codon|ENSG00000153989|stop_codon|NA|stop_codon (ssRNA)", "RNA": "GGGAGUUCUACAGUCCGACGAUCAUGAGGACUUUUUCUCUGCCCUUCGUCAAUAUGCAGCCUGUGAACAGCGUCUGGGAAAGUAGUGGUCAUUGGUUGCAUAAUUUGAUUUGAGGCUUGUGGAGGAAAGGAACCAAGUGACUCCAACAGAGGAUUGAGCAUCA"}, "B7": {"name": "ENSG00000070961:be:win_451|CDS|ENSG00000070961|bound_else_gene|NA|bound_elsewhere_windowed (ssRNA)", "RNA": "GGGAGUUCUACAGUCCGACGAUCACUGGUUGGAUUGAAGGAGCUGCAAUCCUCUUGUCUGUAGUGUGUGUGGUGUUAGUAACAGCUUUCAAUGACUGGAGUAAGGAAAAACAGUUUAGAGGUUUGCAGAGCCGAAUUGAACAACAACAGAGGAUUGAGCAUCA"}, "B8": {"name": "chr1:157676480:157678709:-|three_prime_utr|ENSG00000160856|control|control|control (ssRNA)", "RNA": "GGGAGUUCUACAGUCCGACGAUCAAGCACUGUGUUAUUUUCACAGUGGAGACACGUGGCAAGGCAGGAGGGCCCUCAGCUCCUAGGGCUGUCGAAUAGAGGAGGAGAGAGAAAUGGUCUAGCCAGGGUUACAAGGGCACAAUCCAACAGAGGAUUGAGCAUCA"}, "B9": {"name": "chr7:2728618:2728646:-|3pUTR|ENSG00000146535|msi1_unk|total|mutant (ssRNA)", "RNA": "GGGAGUUCUACAGUCCGACGAUCUUUAAUUUCACUGUUAAUCCUUAUUGUCUUUUUUAUUAAGAUGUUGGAAAAGCAGGAGGCCGUUGUGCCUCAAUUAUUGCAAAAAUGUAACAAUAAAGUUCCUCAAAAUAAGAUCUGUUCCAACAGAGGAUUGAGCAUCA"}, "B10": {"name": "chrX:48578139:48578249:+|3pUTR|ENSG00000102317|msi1_unk|FALSE|overlapping (ssRNA)", "RNA": "GGGAGUUCUACAGUCCGACGAUCGUAUCAAGAACAUGAUUAUCCAGCGGUAUUUUCUAAUUCAGAUCAUCAAACUGAUUAUAUAGAAGAGUUGGCUUUAAAAUGUUUGCAAAUGUCUUUUUUUUUUUAAUACUGGAAGAAAAACAACAGAGGAUUGAGCAUCA"}, "B11": {"name": "chr4:68227913:68228072:-|CDS|ENSG00000185873|control|control|control (ssRNA)", "RNA": "GGGAGUUCUACAGUCCGACGAUCUGAUUCUGGUGGACCACUAGCUUACCCUGAUUCCAGAAAUAUCUGGCAUCUUGUUGGAAUAGUAAGCUGGGGUGAUGGAUGUGGUAAAAAGAAUAAGCCAGGUGUCUAUACUCGAGUGACCAACAGAGGAUUGAGCAUCA"}, "B12": {"name": "chr2:27433287:27433389:+|CDS|ENSG00000115216|unk|total|mutant (ssRNA)", "RNA": "GGGAGUUCUACAGUCCGACGAUCUUCCAGCAUGUCGGAGGGGGAGUCCCAGACAGUACUCCGCAGUGGCUCAGACCCAAAGGCCGAAUCCUCAUCUUCAGCUCCUGGCCUGACAUCAGUGUCACCUCCUGUGACCUCCACAACCAACAGAGGAUUGAGCAUCA"}, "B13": {"name": "chr22:38864602:38864703:-|3pUTR|ENSG00000183741|msi1|FALSE|bound_elsewhere (ssRNA)", "RNA": "GGGAGUUCUACAGUCCGACGAUCGCUGUGCUGCCAUGGGCCCCUCCCUCAGAAGCACGUUGGCAGGAGGCCGAUCAGAACCCUAGCGCCUUUGGUCCUAAGAAUGGGAGGCUGCCUUCCUUCCCAAUCUCCCUGCCAGGGCCCCAACAGAGGAUUGAGCAUCA"}, "B14": {"name": "chr4:2944067:2944171:-|CDS|ENSG00000087269|unk|FALSE|unique (ssRNA)", "RNA": "GGGAGUUCUACAGUCCGACGAUCGGCUUUGUCCCAGAGGUUUAUACCUGAGCUUAUUAAUUUUCUUCUUGGGAUUCUUUACAUAGCAACUCCAAACAAAGCAAGCCAAGGUGAGUUGAUUUGAGGGAGGUUCCUACAAAUAUGCAACAGAGGAUUGAGCAUCA"}}, "note": "The list shows a part of the results.", "data": [{"target": "MSI1 full-length (mouse, UniProt Q61474 1-362)", "sequence (Q61474 whole entry)": "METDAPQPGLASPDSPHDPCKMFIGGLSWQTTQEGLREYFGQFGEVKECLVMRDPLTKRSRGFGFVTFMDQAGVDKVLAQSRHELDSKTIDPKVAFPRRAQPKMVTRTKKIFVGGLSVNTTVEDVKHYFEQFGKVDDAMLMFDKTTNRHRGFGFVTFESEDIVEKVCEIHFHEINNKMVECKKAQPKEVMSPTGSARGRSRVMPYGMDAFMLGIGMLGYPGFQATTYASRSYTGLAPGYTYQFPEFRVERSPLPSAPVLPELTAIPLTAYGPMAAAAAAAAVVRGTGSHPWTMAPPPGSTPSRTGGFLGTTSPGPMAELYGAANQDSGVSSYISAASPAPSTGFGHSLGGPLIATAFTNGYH", "assay": "nsRBNS (natural sequence RNA bind-n-seq); RBNS binding buffer (assumed for nsRBNS): 25 mM Tris pH 7.5, 150 mM KCl, 3 mM MgCl2, 0.01% Triton X-100, 500 ug/ml BSA, 20 U/ml SUPERase-In, 4 C; UNK is unkempt and MSI1 is Musashi-1; names of the RNAs are library labels; protein concentration not given here; high values mean tight binding", "units": {"binding signal": "enrichment R"}, "values": [{"binder": "B1", "binding signal": 0.785}, {"binder": "B2", "binding signal": 0.396}, {"binder": "B3", "binding signal": 51.5}, {"binder": "B4", "binding signal": 0.489}, {"binder": "B5", "binding signal": 5.92}, {"binder": "B6", "binding signal": 0.421}, {"binder": "B7", "binding signal": 1.41}, {"binder": "B8", "binding signal": 0.827}, {"binder": "B9", "binding signal": 0.343}, {"binder": "B10", "binding signal": 0.61}, {"binder": "B11", "binding signal": 0.374}, {"binder": "B12", "binding signal": 0.489}, {"binder": "B13", "binding signal": 0.571}, {"binder": "B14", "binding signal": 0.634}]}]}
